The results in this text go back to ChEMBL document CHEMBL4888484, “Replenishing the malaria drug discovery pipeline: Screening and hit evaluation of the MMV Hit Generation Library 1 (HGL1) against asexual blood stage Plasmodium falciparum ,using a nano luciferase reporter read-out” (2022).

Each structure is given as a SMILES string. Screen size: about 150,000 compounds; about 540 (0.36%) showed an effect of 50% or more. The list shows a part of the results.

The test concerns Plasmodium falciparum. The experiment in a line: Primary screen in NF54 nanoGlo assay, in single point, at 2uM, 72h; a lower Z score goes with more inhibition. Type of test: functional, Erythrocyte. The following applies: timepoint 72 hour.
`CCC1CN(C(=O)C2CCCN(C(=O)c3ccc(F)cc3)C2)C(CC)CN1CC(C)(C)O` (centres undefined): the % Inhibition – broadly, the relative decrease from the control value, in per cent – is -1% and the Z score was determined as 0.08.
`NC(=O)c1cc(NC(=O)C(F)(F)F)cc(C(N)=O)c1`: the “% Inhibition” value is -4% and the Z score is recorded as 0.71.
The like results for `CN(C)[C@@H](CNC(=O)C(=O)Nc1ccon1)c1cccn1C` were, in that order, -10% and 1.76.
`c1ccc2sc(CN3CCC[C@H](C4OCCO4)C3)nc2c1`: the “% Inhibition” value is given as 5% and the Z score is -0.83.
The like results for `Brc1ccccc1-c1nnc(CNC2CC2)o1` were, in that order, -17% and 2.13.
The matching figures for `COc1nc(NC[C@H](O)c2cccs2)nc(N2CCCCCC2)n1`: -7% and 1.37.
The like results for `CC1CCCC(NC(=O)C2N(Cc3ccccc3F)C(=O)[C@H]3C(C(=O)Nc4ccc(F)c(Cl)c4)[C@H]4C=C[C@@]23O4)C1C` (some centres undefined) were, in that order, -2% and 0.29.
Regarding `CCn1cc(S(=O)(=O)N2CCCC2)cn1`, the “% Inhibition” value was 6% and the Z score is -0.87.
The like results for `Cc1cc2c(cc1C)N(Cc1cc(F)cc(F)c1)C(=O)CC(c1cccs1)=N2` were, in that order, 1% and -0.08.
The like results for `CCc1cc(=O)c2cc(NC(=O)c3c(C4CC4)cnn3C)ccc2[nH]1` were, in that order, -8% and 0.89.
The matching figures for `CCc1onc(C)c1NC(=O)N1Cc2cccnc2N2CCC[C@@H]2C1`: -4% and 0.69.
Turning to `CN(C[C@H]1CCCN1C)C(=O)c1cc(F)c(F)cc1F`, the “% Inhibition” value was -6% and the Z score was 1.11.
The matching figures for `O=c1c(-c2ccccc2)c(-c2ccccc2)[nH]c2ccccc12`: -21% and 2.5.
The matching figures for `CC[C@H](O)CN(CCCOC)Cc1ccc(OC)c(OC)c1`: -17% and 2.23.
The like results for `CCC(=O)N1CCCc2cc(S(=O)(=O)N3CCC(C(=O)NCc4cccs4)CC3)ccc21` were, in that order, -21% and 2.63.
Take `C[C@@H](CCn1cccn1)Nc1ccc(CC#N)cc1`: the “% Inhibition” value is given as 5% and the Z score was -0.55.
The matching figures for `Cc1ccc(-c2noc3c(NCc4cccc(Cl)c4)nc(C)nc23)cc1`: -1% and 0.12.
Take `Cc1ncc(CN(C)Cc2cn(C)nn2)s1`: the “% Inhibition” value was -5% and the Z score came to 0.57.
The matching figures for `CCOc1ccc(C(=O)N2CC[C@H]3[C@H](CCC(=O)N3CCCO)C2)o1`: -7% and 1.2.
The matching figures for `COc1ccc(Cl)cc1C(=O)N1CC(Nc2cccnn2)C1`: -12% and 1.4.
The matching figures for `COc1ccc(NC(=O)NC23CCCC2C3)cc1S(=O)(=O)N1CCOCC1` (centres undefined): -5% and 0.74.
Take `CC1COC(C(F)(F)F)CN1C(=O)c1ccn2nnnc2c1` (centres undefined): the “% Inhibition” value was determined as 5% and the Z score is recorded as -0.7.
The matching figures for `CC(C)CO[C@H]1CCN(CC(=O)N2CC(=O)Nc3ccccc32)C1`: 4% and -0.4.
The like results for `CC1CCCC(NC(=O)NCCC(N)=O)C1C` (centres undefined) were, in that order, -16% and 1.44.
The matching figures for `NC(=O)N1CC[C@H](NC(=O)c2ccc(-c3cccs3)s2)C1`: -12% and 1.43.
Consider `CC(=O)c1cccc(S(=O)(=O)N2CC(N3C(=O)CCC3=O)C2)c1`, for which the “% Inhibition” value is listed as 1% and the Z score was -0.11.
Turning to `CCOC1CC(NCc2c[nH]nc2-c2cccnc2)C12CCC2` (centres undefined), the “% Inhibition” value is listed as -10% and the Z score stood at 1.18.
The matching figures for `CS(=O)(=O)CCN1CCN(C(=O)c2cnc(-c3ccncc3)nc2)CC1`: 1% and -0.26.
The like results for `c1ccc(-c2noc(-c3ccc(N4CCC(N5CCCCC5)CC4)nn3)n2)cc1` were, in that order, -10% and 1.2.
For `Cc1cc(S(=O)(=O)N2CCC3(CCC(=O)N3Cc3ccc(F)cc3)CC2)ccc1F`, the “% Inhibition” value is -6% and the Z score is listed as 0.8.
The like results for `COc1cccc(C(=O)N2CCC3(CC2)N[C@@H](Cc2ccccc2)C(=O)N3C2CC2)c1` were, in that order, 0% and 0.03.
The like results for `Cc1ccc(C[C@H]2CCOC3(CCN(C(=O)c4ccco4)CC3)C2)cc1` were, in that order, -23% and 4.58.
The matching figures for `CCC1(CNC(=O)CCS(C)(=O)=O)CCC1`: -14% and 2.1.
`CO[C@@H](CS(=O)(=O)Nc1cccc2ocnc12)C1CCOCC1`: the “% Inhibition” value is -17% and the Z score amounted to 2.15.
With `COc1ccc(C2OC(=O)N(Cc3cccnc3)C2(O)c2ccc(OC)cc2)cc1` (centres undefined), the “% Inhibition” value is recorded as 32% and the Z score is -3.66.
With `COc1ccccc1NC(=O)N[C@H]1CC(=O)N(CC(C)(C)C)C1`, the “% Inhibition” value is listed as -24% and the Z score came to 2.09.
The like results for `O=C(O)c1coc(C(=O)N2CC3(CCC3)c3ccccc32)c1` were, in that order, -7% and 1.3.
The like results for `COCCn1nc(C)c(NC(=O)N2CCC[C@H](c3cc(F)ccc3F)C2)c1C` were, in that order, -3% and 0.38.
Consider `Cc1nc2cc(N3CCC[C@H](C(=O)NCc4cccs4)C3)cnc2nc1C`, for which the “% Inhibition” value is reported as -5% and the Z score is 0.93.
The like results for `Cc1nnc(CCC(=O)N2CCCCC2)o1` were, in that order, 0% and 0.02.
The matching figures for `COc1ccc(-c2nc(-c3ccc(OCc4ccc(F)c(F)c4)c(OC)c3)no2)c(OC)c1`: -4% and 0.61.
With `CCOC1CN(C(=O)NC[C@H]2CCCn3ccnc32)C1`, the “% Inhibition” value was -7% and the Z score is on record as 0.69.
